{"source": "PubChem BioAssay AID485281", "about": "(National Center for Advancing Translational Sciences (NCATS), 2010)", "note": "Screen size: about 350,000 compounds; about 260 (0.074%) were called active. The shares of active, inactive and inconclusive entries below differ from those in the screen. Calls follow the shape of the dose curve; as a rule, active = well fitted inhibition curve with a large enough effect; inconclusive = small, poorly fitted or top-dose-only effect; inactive = no such curve, though single readings can be large or run the other way. Where the call is inconclusive, the potency comes from a doubtful curve fit. % is scaled to controls: 0 for no effect and ±100 for the full control effect; potency is read from the fitted curve at half-maximal effect; tags tell the direction and shape of the fitted curve.", "data": [{"target": "Ferritin light chain (Equus caballus) (UniProt P02791)", "sequence (P02791 whole entry, looked up)": "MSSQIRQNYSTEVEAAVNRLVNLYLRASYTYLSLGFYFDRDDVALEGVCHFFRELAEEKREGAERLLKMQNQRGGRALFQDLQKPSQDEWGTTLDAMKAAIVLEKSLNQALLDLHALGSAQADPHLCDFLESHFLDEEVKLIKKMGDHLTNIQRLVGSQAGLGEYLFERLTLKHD", "assay": "qHTS Assay for Identification of Novel General Anesthetics; also: nearly all actives have a fitted effect of over 20% in size", "conditions": "apoferritin/1-aminoanthracene competitive binding, fluorescence; activity change, negative = displacement: at 77.5 µM (top of the series)", "procedure,_shortened": "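In PBS, apoferritin at 10 uM is loaded with 1-AMA from a 50% saturated solution. After 10 min of compound exposure at ambient temperature, reduced 535 nm fluorescence indicates probe displacement.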", "values": [{"smiles": "COCc1cc(C)nc(NCCc2ccccc2)c1C#N", "Potency": "inconclusive: 35.5 µM [inhibitor, partial curve]"}, {"smiles": "CCn1c(=O)cc(C(=O)OC)sc1=Nc1ccc(F)c(F)c1", "Potency": "inconclusive: 35.5 µM [inhibitor, partial curve]"}, {"smiles": "CCc1nnc(NC(=O)C2Cc3ccccc3CN2S(=O)(=O)c2c(C)c(C)cc(C)c2C)s1", "note": "(configuration not stated)", "Potency": "inconclusive: 1.78 µM [inhibitor, full curve, poor fit]"}, {"smiles": "CNc1nc(C23CC4CC(CC(C4)C2)C3)cs1", "Potency": "inconclusive: 10 µM [inhibitor, partial curve]"}, {"smiles": "Cc1ccc(-n2c(=O)c3sccc3n(Cc3cc(=O)n4cc(Cl)ccc4n3)c2=O)cc1F", "Potency": "inconclusive: 3.98 µM [inhibitor, full curve, poor fit]"}, {"smiles": "NS(=O)(=O)c1ccc(S(=O)(=O)NCCc2ccccc2)cc1", "Potency": "inconclusive: 50.1 µM [inhibitor, single point]"}, {"smiles": "O=C(NCc1ccccc1Cl)c1ccc(CS(=O)(=O)c2ccccc2)o1", "activity change, negative = displacement": "inactive: -9.67%"}, {"smiles": "Cc1cc(C)c(NC(=O)CSc2nccn2-c2cccc(Cl)c2)c(C)c1", "Potency": "inconclusive: 14.1 µM [inhibitor, partial curve]"}, {"smiles": "O=Cc1c(Sc2ccccc2)nc2ccccn2c1=O", "Potency": "inconclusive: 39.8 µM [inhibitor, partial curve]"}, {"smiles": "CC(=O)c1ccc(C(=O)Nc2sc3c(c2C(N)=O)CCN(Cc2ccccc2)C3)cc1", "Potency": "inconclusive: 5.01 µM [inhibitor, single point]"}, {"smiles": "C/C(CC(=O)Nc1ccc(N(C)C)cc1)=N\\NC(=O)c1ccccn1", "Potency": "inconclusive: 39.8 µM [inhibitor, single point]"}, {"smiles": "CCCCOc1ccc(/C=C/C2=CC(C)(C)NC(=S)N2)cc1OCC", "Potency": "inconclusive: 25.1 µM [inhibitor, single point]"}, {"smiles": "CC(=O)O[C@@H]1[C@@H](O)CN[C@@H]1Cc1ccccc1", "activity change, negative = displacement": "inactive: 6.32%"}, {"smiles": "O=C1c2ccc(Br)cc2C(=O)N1c1ccc(Cc2ccncc2)cc1", "Potency": "inconclusive: 28.2 µM [inhibitor, partial curve]"}, {"smiles": "Cc1cc(C)c(C#N)c(OCC(=O)c2ccc(Br)cc2)n1", "Potency": "inconclusive: 6.31 µM [inhibitor, partial curve]"}, {"smiles": "Cc1c(Cl)cccc1NC(=O)N1CCOc2ccccc21", "activity change, negative = displacement": "inactive: -4.34%"}, {"smiles": "CC(C)(C)C(=O)NC(=S)NNC(=O)c1ccc(-c2ccccc2)cc1", "activity change, negative = displacement": "inactive: -15.7%"}, {"smiles": "COC(=O)c1sccc1S(=O)(=O)N1CCN(c2ccc(C)cc2C)CC1", "Potency": "inconclusive: 12.6 µM [inhibitor, partial curve]"}, {"smiles": "CC(C)(C)c1ccc(C(=O)NC2(C(F)(F)F)NC(=O)N(CCc3ccccc3)C2=O)cc1", "note": "(configuration not stated)", "Potency": "inconclusive: 0.794 µM [inhibitor, full curve, poor fit]"}, {"smiles": "O=S(=O)(Nc1cccc2cccnc12)c1ccc(Br)s1", "Potency": "inconclusive: 50.1 µM [inhibitor, single point]"}, {"smiles": "CCOc1ccc(CNC(=O)c2ccccc2NC(=O)c2nsc3ccccc23)cc1", "activity change, negative = displacement": "inactive: 29.4%"}, {"smiles": "O=[N+]([O-])c1cccc(CN2CCN(S(=O)(=O)Cc3ccccc3)CC2)c1", "Potency": "inconclusive: 12.6 µM [inhibitor, partial curve]"}, {"smiles": "Cc1ccc(CNn2cnnc2SCC(=O)NC(C)(C)C)cc1", "Potency": "inconclusive: 31.6 µM [inhibitor, partial curve]"}, {"smiles": "O=C(CNCc1ccc(F)cc1)Nc1ccc(S(=O)(=O)N2CCOCC2)cc1", "Potency": "inconclusive: 35.5 µM [inhibitor, single point]"}, {"smiles": "COc1ccc(/C=C2\\NC(=S)N(CC3CCCO3)C2=O)c(OC)c1", "note": "(configuration not stated)", "Potency": "inconclusive: 35.5 µM [inhibitor, partial curve]"}, {"smiles": "CN(Cc1ccccc1)c1ccc(-c2nc(-c3ccccc3)no2)cc1[N+](=O)[O-]", "Potency": "inconclusive: 28.2 µM [inhibitor, partial curve]"}, {"smiles": "c1ccc(CCNc2nc(-c3ccccn3)cs2)cc1", "Potency": "inconclusive: 35.5 µM [inhibitor, partial curve]"}, {"smiles": "O=C(CN1CCCC1)NN=C(c1ccccc1)c1ccccc1", "Potency": "inconclusive: 28.2 µM [inhibitor, partial curve]"}, {"smiles": "COc1ccc(Cl)cc1NC(=O)CSc1nnc2[nH]c(=O)cc(-c3ccccc3)n12", "activity change, negative = displacement": "inactive: 46.5%"}, {"smiles": "COC(=O)c1c(NC(=O)CSc2nnnn2-c2ccccc2)sc2c1CCC(C(C)(C)C)C2", "note": "(configuration not stated)", "Potency": "inconclusive: 35.5 µM [inhibitor, partial curve]"}, {"smiles": "Cc1cc2nc(CCN(Cc3cccnc3)C(=S)Nc3ccccc3)[nH]c2cc1C", "Potency": "inconclusive: 25.1 µM [inhibitor, single point]"}, {"smiles": "COc1ccccc1N1CCN(C(=O)c2ccc3c(=O)n(Cc4ccco4)c(=S)[nH]c3c2)CC1", "Potency": "inconclusive: 28.2 µM [inhibitor, partial curve]"}, {"smiles": "C/C(=N\\NC(=O)COc1ccc(C(C)(C)C)cc1)c1ccc2c(c1)OCCO2", "Potency": "inconclusive: 14.1 µM [inhibitor, partial curve]"}, {"smiles": "CCOC(=O)C(=CNc1cccc(C)c1C)C(=O)OCC", "activity change, negative = displacement": "inactive: -2.33%"}, {"smiles": "CCN1C(=S)N[C@@H](c2ccccc2)C(C(=O)OC)=C1C", "Potency": "inconclusive: 35.5 µM [inhibitor, partial curve]"}, {"smiles": "CCN(CC)CCOC(=O)c1ccc(N/C=C(/C#N)c2nc(-c3cccc(OC)c3)cs2)cc1", "Potency": "inconclusive: 35.5 µM [inhibitor, single point]"}, {"smiles": "COc1ccc(C(=O)COC(=O)c2nn(C)cc2Cl)cc1", "Potency": "inconclusive: 50.1 µM [inhibitor, single point]"}, {"smiles": "O=C(NCc1ccccc1)C(Cc1ccccc1)N1C(=O)C2C3CCC(C3)C2C1=O", "note": "(configuration not stated)", "Potency": "inconclusive: 35.5 µM [inhibitor, partial curve]"}, {"smiles": "CCn1c(O)c(/C=C2\\C=NN=C2c2ccc(C)cc2)sc1=S", "activity change, negative = displacement": "inactive: -9.32%"}, {"smiles": "O=C(Nc1ccccc1)Nc1cccn(Cc2c(F)cccc2Cl)c1=O", "Potency": "inconclusive: 12.6 µM [inhibitor, partial curve]"}, {"smiles": "O=C(Cc1cn(Cc2cccc(Cl)c2)c2ccccc12)N1CCCC1", "Potency": "inconclusive: 50.1 µM [inhibitor, single point]"}, {"smiles": "CCOC(=O)C1=C(C)N=C2SCCC(=O)N2[C@@H]1/C=C/c1ccccc1", "Potency": "inconclusive: 22.4 µM [inhibitor, partial curve]"}]}]}
